# In patent publication US5204328A, “Peptides having atrial natriuretic factor activity” (Merck & Co., Inc., priority 1991, dated 1993):
# Not every detail of the peptide structures is certain; ends, links or a residue may be inferred. Where a SMILES comes first, the peptide text is derived from it. Bridges are numbered along the chain shown (N, C = ends). [ ]: non-standard residue; d: D form.
# Test system: Rabbit Renal Artery
# Assay: Vasorelaxant relative potency, rabbit renal artery
# Assay type: cell-based
# Conditions: Table 1; (3-28) analogs, relative to sequence I = 1
row,SMILES,Vasorelaxant Relative Potency Rabbit Renal Artery
1,CC[C@H](C)[C@@H]1NC(=O)[C@H](CCCNC(=N)N)NC(=O)[C@H](CC(=O)O)NC(=O)[C@H]([C@@H](C)CC)NC(=O)[C@H](CCCNC(=N)N)NC(=O)[C@@H]2CCCN2C(=O)[C@@H](C)NC(=O)[C@H](Cc2ccccc2)NC(=O)[C@@H](NC(=O)[C@H](CO)NC(=O)[C@H](CO)NC(=O)[C@H](CCCNC(=N)N)NC(=O)[C@@H](N)CCCNC(=N)N)CSSC[C@@H](C(=O)N[C@@H](CC(N)=O)C(=O)N[C@@H](CO)C(=O)N[C@@H](Cc2ccccc2)C(=O)N[C@@H](CCCNC(=N)N)C(=O)N[C@@H](Cc2ccc(O)cc2)C(=O)O)NC(=O)CNC(=O)[C@H](CC(C)C)NC(=O)CNC(=O)[C@H](CO)NC(=O)[C@H](CCC(N)=O)NC(=O)[C@H](C)NC(=O)CNC1=O [Structure 6] (H-RRSSCF[dA]PRIDRIGAQSGLGCNSFRY-OH; disulfide 5-21),0.73
2,CC[C@H](C)[C@@H]1NC(=O)[C@H](CCCNC(=N)N)NC(=O)CNC(=O)CNC(=O)[C@H](Cc2ccccc2)NC(=O)[C@@H](NC(=O)[C@H](CO)NC(=O)[C@H](CO)NC(=O)[C@H](CCCNC(=N)N)NC(=O)[C@@H](N)CCCNC(=N)N)CSSC[C@@H](C(=O)N[C@@H](CC(N)=O)C(=O)N[C@@H](CO)C(=O)N[C@@H](Cc2ccccc2)C(=O)N[C@@H](CCCNC(=N)N)C(=O)N[C@@H](Cc2ccc(O)cc2)C(=O)O)NC(=O)CNC(=O)[C@H](CC(C)C)NC(=O)CNC(=O)[C@H](CO)NC(=O)[C@H](CCC(N)=O)NC(=O)[C@H](C)NC(=O)CNC(=O)[C@@H]2CCCN2C(=O)[C@H](CCCNC(=N)N)NC(=O)[C@H](CC(=O)O)NC1=O [Structure 12] (H-RRSSCFGGRIDRPGAQSGLGCNSFRY-OH; disulfide 5-21),0.008
3,CC[C@H](C)[C@@H]1NC(=O)[C@H](CCCNC(=N)N)NC(=O)[C@H](CC(=O)O)NC(=O)[C@H]([C@@H](C)CC)NC(=O)[C@@H]2CCCN2C(=O)CNC(=O)CNC(=O)[C@H](Cc2ccccc2)NC(=O)[C@@H](NC(=O)[C@H](CO)NC(=O)[C@H](CO)NC(=O)[C@H](CCCNC(=N)N)NC(=O)[C@@H](N)CCCNC(=N)N)CSSC[C@@H](C(=O)N[C@@H](CC(N)=O)C(=O)N[C@@H](CO)C(=O)N[C@@H](Cc2ccccc2)C(=O)N[C@@H](CCCNC(=N)N)C(=O)N[C@@H](Cc2ccc(O)cc2)C(=O)O)NC(=O)CNC(=O)[C@H](CC(C)C)NC(=O)CNC(=O)[C@H](CO)NC(=O)[C@H](CCC(N)=O)NC(=O)[C@H](C)NC(=O)CNC1=O [Structure 8] (H-RRSSCFGGPIDRIGAQSGLGCNSFRY-OH; disulfide 5-21),0.3
4,CC[C@H](C)[C@@H]1NC(=O)[C@H](CCCNC(=N)N)NC(=O)[C@H](CC(=O)O)NC(=O)[C@H]([C@@H](C)CC)NC(=O)[C@H](CCCNC(=N)N)NC(=O)CN2CC[C@@H](NC(=O)[C@H](Cc3ccccc3)NC(=O)[C@@H](NC(=O)[C@H](CO)NC(=O)[C@H](CO)NC(=O)[C@H](CCCNC(=N)N)NC(=O)[C@@H](N)CCCNC(=N)N)CSSC[C@@H](C(=O)N[C@@H](CC(N)=O)C(=O)N[C@@H](CO)C(=O)N[C@@H](Cc3ccccc3)C(=O)N[C@@H](CCCNC(=N)N)C(=O)N[C@@H](Cc3ccc(O)cc3)C(=O)O)NC(=O)CNC(=O)[C@H](CC(C)C)NC(=O)CNC(=O)[C@H](CO)NC(=O)[C@H](CCC(N)=O)NC(=O)[C@H](C)NC(=O)CNC1=O)C2=O [Structure 31],0.096
5,CC[C@H](C)[C@@H]1NC(=O)[C@H](CCCNC(=N)N)NC(=O)[C@H](CC(=O)O)NC(=O)[C@@H]2CCCN2C(=O)[C@H](CCCNC(=N)N)NC(=O)CNC(=O)CNC(=O)[C@H](Cc2ccccc2)NC(=O)[C@@H](NC(=O)[C@H](CO)NC(=O)[C@H](CO)NC(=O)[C@H](CCCNC(=N)N)NC(=O)[C@@H](N)CCCNC(=N)N)CSSC[C@@H](C(=O)N[C@@H](CC(N)=O)C(=O)N[C@@H](CO)C(=O)N[C@@H](Cc2ccccc2)C(=O)N[C@@H](CCCNC(=N)N)C(=O)N[C@@H](Cc2ccc(O)cc2)C(=O)O)NC(=O)CNC(=O)[C@H](CC(C)C)NC(=O)CNC(=O)[C@H](CO)NC(=O)[C@H](CCC(N)=O)NC(=O)[C@H](C)NC(=O)CNC1=O [Structure 9] (H-RRSSCFGGRPDRIGAQSGLGCNSFRY-OH; disulfide 5-21),0.12
6,CC[C@H](C)[C@@H]1NC(=O)[C@H](CCCNC(=N)N)NC(=O)[C@H](CC(=O)O)NC(=O)[C@H]([C@@H](C)CC)NC(=O)[C@@H]2CCCN2C(=O)[C@H](C)NC(=O)[C@@H](C)NC(=O)[C@H](Cc2ccccc2)NC(=O)[C@@H](NC(=O)[C@H](CO)NC(=O)[C@H](CO)NC(=O)[C@H](CCCNC(=N)N)NC(=O)[C@@H](N)CCCNC(=N)N)CSSC[C@@H](C(=O)N[C@@H](CC(N)=O)C(=O)N[C@@H](CO)C(=O)N[C@@H](Cc2ccccc2)C(=O)N[C@@H](CCCNC(=N)N)C(=O)N[C@@H](Cc2ccc(O)cc2)C(=O)O)NC(=O)CNC(=O)[C@H](CC(C)C)NC(=O)CNC(=O)[C@H](CO)NC(=O)[C@H](CCC(N)=O)NC(=O)[C@H](C)NC(=O)CNC1=O [Structure 4] (H-RRSSCF[dA]APIDRIGAQSGLGCNSFRY-OH; disulfide 5-21),0.38
7,CC[C@H](C)[C@@H]1NC(=O)[C@H](CCCNC(=N)N)NC(=O)[C@H](CC(=O)O)NC(=O)[C@H]([C@@H](C)CC)NC(=O)[C@H](CCCNC(=N)N)NC(=O)[C@H](C)NC(=O)[C@@H](C)NC(=O)[C@H](Cc2ccccc2)NC(=O)[C@@H](NC(=O)[C@H](CO)NC(=O)[C@H](CO)NC(=O)[C@H](CCCNC(=N)N)NC(=O)[C@@H](N)CCCNC(=N)N)CSSC[C@@H](C(=O)N[C@@H](CC(N)=O)C(=O)N[C@@H](CO)C(=O)N[C@@H](Cc2ccccc2)C(=O)N[C@@H](CCCNC(=N)N)C(=O)N[C@@H](Cc2ccc(O)cc2)C(=O)O)NC(=O)CNC(=O)[C@H](CC(C)C)NC(=O)[C@@H]2CCCN2C(=O)[C@H](CO)NC(=O)[C@H](CCC(N)=O)NC(=O)[C@H](C)NC(=O)[C@H](C)NC1=O [Structure 2] (H-RRSSCF[dA]ARIDRIAAQSPLGCNSFRY-OH; disulfide 5-21),1.97
8,CC[C@H](C)[C@@H]1NC(=O)[C@H](CCCNC(=N)N)NC(=O)[C@H](CC(=O)O)NC(=O)[C@H]([C@@H](C)CC)NC(=O)[C@@H]2CCCN2C(=O)CNC(=O)[C@@H](C)NC(=O)[C@H](Cc2ccccc2)NC(=O)[C@@H](NC(=O)[C@H](CO)NC(=O)[C@H](CO)NC(=O)[C@H](CCCNC(=N)N)NC(=O)[C@@H](N)CCCNC(=N)N)CSSC[C@@H](C(=O)N[C@@H](CC(N)=O)C(=O)N[C@@H](CO)C(=O)N[C@@H](Cc2ccccc2)C(=O)N[C@@H](CCCNC(=N)N)C(=O)N[C@@H](Cc2ccc(O)cc2)C(=O)O)NC(=O)CNC(=O)[C@H](CC(C)C)NC(=O)CNC(=O)[C@H](CO)NC(=O)[C@H](CCC(N)=O)NC(=O)[C@H](C)NC(=O)CNC1=O [Structure 5] (H-RRSSCF[dA]GPIDRIGAQSGLGCNSFRY-OH; disulfide 5-21),1.48
9,CC[C@H](C)[C@@H]1NC(=O)[C@H](CCCNC(=N)N)NC(=O)[C@H](CC(=O)O)NC(=O)[C@H]([C@@H](C)CC)NC(=O)[C@H](CCCNC(=N)N)NC(=O)CN2CC[C@H](NC(=O)[C@H](Cc3ccccc3)NC(=O)[C@@H](NC(=O)[C@H](CO)NC(=O)[C@H](CO)NC(=O)[C@H](CCCNC(=N)N)NC(=O)[C@@H](N)CCCNC(=N)N)CSSC[C@@H](C(=O)N[C@@H](CC(N)=O)C(=O)N[C@@H](CO)C(=O)N[C@@H](Cc3ccccc3)C(=O)N[C@@H](CCCNC(=N)N)C(=O)N[C@@H](Cc3ccc(O)cc3)C(=O)O)NC(=O)CNC(=O)[C@H](CC(C)C)NC(=O)CNC(=O)[C@H](CO)NC(=O)[C@H](CCC(N)=O)NC(=O)[C@H](C)NC(=O)CNC1=O)C2=O [Structure 32],0.107
10,CC[C@H](C)[C@@H]1NC(=O)[C@H](CCCNC(=N)N)NC(=O)[C@H](CC(=O)O)NC(=O)[C@H]([C@@H](C)CC)NC(=O)[C@H](CCCNC(=N)N)NC(=O)CNC(=O)[C@@H](C)NC(=O)[C@H](Cc2ccccc2)NC(=O)[C@@H](NC(=O)[C@H](CO)NC(=O)[C@H](CO)NC(=O)[C@H](CCCNC(=N)N)NC(=O)[C@@H](N)CCCNC(=N)N)CSSC[C@@H](C(=O)N[C@@H](CC(N)=O)C(=O)N[C@@H](CO)C(=O)N[C@@H](Cc2ccccc2)C(=O)N[C@@H](CCCNC(=N)N)C(=O)N[C@@H](Cc2ccc(O)cc2)C(=O)O)NC(=O)CNC(=O)[C@H](CC(C)C)NC(=O)[C@@H]2CCCN2C(=O)[C@H](CO)NC(=O)[C@H](CCC(N)=O)NC(=O)[C@H](C)NC(=O)[C@H](C)NC1=O [Structure 3] (H-RRSSCF[dA]GRIDRIAAQSPLGCNSFRY-OH; disulfide 5-21),1.52
11,CC[C@H](C)[C@@H]1NC(=O)[C@H](CCCNC(=N)N)NC(=O)CNC(=O)CNC(=O)[C@H](Cc2ccccc2)NC(=O)[C@@H](NC(=O)[C@H](CO)NC(=O)[C@H](CO)NC(=O)[C@H](CCCNC(=N)N)NC(=O)[C@@H](N)CCCNC(=N)N)CSSC[C@@H](C(=O)N[C@@H](CC(N)=O)C(=O)N[C@@H](CO)C(=O)N[C@@H](Cc2ccccc2)C(=O)N[C@@H](CCCNC(=N)N)C(=O)N[C@@H](Cc2ccc(O)cc2)C(=O)O)NC(=O)CNC(=O)[C@H](CC(C)C)NC(=O)CNC(=O)[C@H](CO)NC(=O)[C@H](CCC(N)=O)NC(=O)[C@H](C)NC(=O)CNC(=O)[C@H]([C@@H](C)CC)NC(=O)[C@@H]2CCCN2C(=O)[C@H](CC(=O)O)NC1=O [Structure 11] (H-RRSSCFGGRIDPIGAQSGLGCNSFRY-OH; disulfide 5-21),0.28

# Test system: Aorta
# Assay: Vasorelaxant relative potency, aorta
# Assay type: cell-based
# Conditions: Table 1; (3-28) analogs, relative to sequence I = 1
row,SMILES,Vasorelaxant Relative Potency Aorta
1,CC[C@H](C)[C@@H]1NC(=O)[C@H](CCCNC(=N)N)NC(=O)[C@@H]2CCCN2C(=O)[C@H]([C@@H](C)CC)NC(=O)[C@H](CCCNC(=N)N)NC(=O)CNC(=O)CNC(=O)[C@H](Cc2ccccc2)NC(=O)[C@@H](NC(=O)[C@H](CO)NC(=O)[C@H](CO)NC(=O)[C@H](CCCNC(=N)N)NC(=O)[C@@H](N)CCCNC(=N)N)CSSC[C@@H](C(=O)N[C@@H](CC(N)=O)C(=O)N[C@@H](CO)C(=O)N[C@@H](Cc2ccccc2)C(=O)N[C@@H](CCCNC(=N)N)C(=O)N[C@@H](Cc2ccc(O)cc2)C(=O)O)NC(=O)CNC(=O)[C@H](CC(C)C)NC(=O)CNC(=O)[C@H](CO)NC(=O)[C@H](CCC(N)=O)NC(=O)[C@H](C)NC(=O)CNC1=O [Structure 10] (H-RRSSCFGGRIPRIGAQSGLGCNSFRY-OH; disulfide 5-21),0.19
